The list shows a part of the results. Sequences were assembled here from the parent chain. Values near 0.05 are background.
B1: TEV protease; numbered along this chain (parent)
chain: MGESLFKGPRDYNPISSSICHLTNESDGHTTSLYGIGFGPFIITNKHLFRRNNGTLVVQSLHGVFKVKDTTTLQQHLVDGRDMIIIRMPKDFPPFPQKLKFREPQREERICLVTTNFQTKSMSSMVSDTSCTFPSGDGIFWKHWIQTKDGQCGSPLVSTRDGFIVGIHSASNFTNTNNYFTSVPKNFMELLTNQEAQQWVSGWRLNADSVLWGGHKVFMVKPEEPFQPVKEATQL

Variants of: B1
Assay: raw area under fraction-flipped curve 0-4 h after induction (AUC4h, not background-subtracted), DNA-recorder readout of cleavage of the substrate (dimensionless); higher = more cleavage of the substrate by the protease variant
Conditions: temperature: 34 °C; time window: 0-4 h after rhamnose induction
Procedure: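 In vivo DNA recorder in E. coli TOP10(DE3) ΔrhaA at 34 °C. Each TEVp single-site mutant (parent TEVp 0) is paired with a single-site variant of the 7-mer TEVs (canonical ENLYFQ|S). The substrate sits between flexible linkers in a Bxb1-sfGFP-TEVs-SsrA fusion, so cleavage stabilises Bxb1 and speeds flipping of a recombination array, read by NGS. The value is the raw area under the fraction-flipped curve over 0-4 h after rhamnose induction (AUC4h), with ≥20 reads per time point. It is not background-subtracted; inactive controls average about 0.047.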
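Also: Bxb1 expression induced with 0.2% (w/v) L-rhamnose at OD600 near 0.5, cultures sampled hourly, flipped fraction per protease–substrate barcode pair counted by paired-end Illumina sequencing.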

| Variant | area with substrate ENLYFAS | area with substrate ENLYFCS | area with substrate ENLYFDS | area with substrate ENLYFFS | area with substrate ENLYFGS | area with substrate ENLYFHS | area with substrate ENLYFIS | area with substrate ENLYFKS | area with substrate ENLYFMS | area with substrate ENLYFNS | area with substrate ENLYFRS | area with substrate ENLYFVS | area with substrate ENLYFWS | area with substrate ENLYFYS | area with substrate ENLYFES | area with substrate ENLYFLS | area with substrate ENLYFSS | area with substrate ENLYFTS | area with substrate ENLYFPS |
| --- | --- | --- | --- | --- | --- | --- | --- | --- | --- | --- | --- | --- | --- | --- | --- | --- | --- | --- | --- |
| I164T | 0.0571 | 0.0439 | 0.0433 | 0.0559 | 0.0676 | 0.0367 | 0.0599 | 0.0578 | 0.0527 | 0.0563 | 0.0528 | 0.039 | 0.0392 | 0.0335 | – | – | – | – | – |
| I164W | 0.0623 | 0.038 | – | 0.0446 | – | 0.0528 | 0.0652 | 0.0488 | 0.0457 | – | – | 0.0599 | 0.0377 | – | 0.0524 | 0.0545 | 0.0539 | 0.0467 | – |
| V165F | 0.0492 | 0.045 | – | 0.0648 | – | 0.0554 | 0.0459 | 0.0488 | 0.064 | – | 0.0341 | 0.0482 | 0.0533 | – | 0.072 | – | – | 0.0559 | – |
| V165S | 0.0471 | 0.049 | – | 0.0504 | – | 0.0454 | 0.046 | 0.0449 | 0.0475 | 0.0551 | 0.0511 | 0.0352 | 0.0542 | – | 0.0616 | – | 0.034 | 0.0415 | 0.0448 |
| G166N | 0.0445 | 0.0366 | – | 0.0654 | – | – | 0.0486 | – | 0.0374 | 0.0552 | 0.0392 | 0.0509 | 0.0369 | 0.0531 | 0.025 | 0.049 | – | 0.0536 | 0.0584 |
| G166P | 0.0383 | – | – | 0.0802 | – | – | – | 0.0508 | – | 0.0335 | – | 0.051 | – | – | 0.0336 | – | 0.0513 | – | 0.0431 |
| S169R | 0.0625 | 0.0561 | 0.0591 | – | – | 0.0555 | – | 0.0823 | 0.0603 | 0.0575 | – | 0.0554 | 0.0699 | 0.0554 | 0.0599 | 0.055 | 0.0352 | – | 0.056 |
| F173L | 0.0487 | 0.0492 | – | 0.0768 | – | – | 0.0719 | 0.0453 | 0.0754 | – | – | 0.0734 | – | – | 0.0593 | 0.0532 | 0.0794 | – | 0.066 |
| F173S | 0.0589 | 0.0538 | 0.0753 | – | 0.0708 | 0.0404 | 0.0761 | 0.0419 | – | 0.0575 | – | 0.0563 | 0.0522 | 0.0562 | – | 0.07 | – | 0.0521 | 0.0618 |
| N175D | 0.0587 | 0.0623 | 0.0609 | 0.0728 | 0.0553 | – | 0.0691 | 0.0677 | 0.0514 | – | – | – | 0.0643 | 0.035 | – | 0.0599 | – | – | 0.0687 |
| T176W | 0.0546 | – | 0.0446 | 0.0828 | 0.0458 | 0.0578 | 0.0534 | – | 0.0542 | 0.0636 | 0.036 | – | 0.0434 | – | 0.0673 | – | – | – | – |
| Y179Q | 0.0658 | 0.063 | 0.0381 | 0.063 | 0.0591 | – | 0.0599 | 0.0545 | 0.0538 | 0.0605 | 0.05 | – | 0.0648 | 0.0661 | 0.0734 | 0.0767 | – | 0.05 | 0.0523 |
| T181Y | 0.0552 | 0.0495 | – | 0.0602 | 0.0641 | – | 0.0522 | 0.0689 | 0.0517 | 0.0657 | 0.0685 | 0.0774 | 0.0519 | 0.0519 | 0.0446 | 0.0582 | 0.0562 | – | 0.0833 |

From the supplement of paper PMC12217912
